# PubChem BioAssay AID1963576 (National Center for Advancing Translational Sciences (NCATS), 2024)
# Among all 46,000 compounds or so, about 60 (0.1%) were called active. About 3% were inconclusive and are not listed. The call rests on the fitted dose curve; in most records, active means well fitted inhibition curve with a large enough effect; inconclusive means small, poorly fitted or top-dose-only effect; inactive means no such curve, though single readings can be large or run the other way. The list shows a part of the results.
# Test: Primary qHTS assay for Inhibitors of ovarian cancer metastasis using an organotypic tumor microenvironment (TME) model. Further: nearly all actives have a fitted effect of over 65% in size.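 On activity change, negative = inhibition: plate controls were DMSO wells for no effect and tomatine positive control wells for full effect.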
# Conditions: SKOV3ip1-GFP adhesion/invasion on 3D omental model, fluorescence; series mostly up to 45.8 µM; activity change, negative = inhibition: at the top concentration
# Method in brief: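 Primary human omental fibroblast/mesothelial 3D culture pre-formed 48 h. SKOV3ip1-GFP cells added with compounds (0.36-46 umol/L), incubated 2 h RT/16 h 37 C, fixed; GFP cells quantified at 488/509 nm.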
Compound,"activity change, negative = inhibition",outcome
O=c1[nH]cc(F)c(=O)[nH]1,inactive: -8.04%,
O=c1c2c3c(sc2n(Cc2cc(=O)n4ccccc4n2)c(=O)n1-c1ccc(Cl)cc1)CCC3,,inactive
Cc1cc(C)c2oc(C(=O)Nc3ccc(S(=O)(=O)N(C)c4ccccc4)cc3)cc(=O)c2c1,inactive: 7.43%,
Cc1cccc(N2CCN(C(=O)C3CCN(S(=O)(=O)c4ccc5c(c4)oc(=O)n5C)CC3)CC2)c1C,,inactive
COC(=O)CCN(C(=O)c1c(C)oc2ncnc(N3CCOCC3)c12)c1ccccc1,inactive: -7.93%,
CCCc1nn2c(C)c(-c3ccccc3)nc2s1,inactive: 2.92%,
O=S(=O)(Nc1cccc(-c2ccc(N3CCOCC3)nn2)c1)c1ccc(F)cc1F,inactive: 2.22%,
CS(=O)(=O)c1ccc([C@@H](O)[C@@H](CO)NC(=O)C(Cl)Cl)cc1,inactive: -15%,
O=C(/C=C/c1ccccc1)N1CCN(Cc2cc(=O)n3nc(-c4ccccc4)sc3n2)CC1,inactive: -8.35%,
CCC(=O)N1CCc2cc(S(=O)(=O)N(C)c3cccc(C)c3)ccc21,inactive: -8.04%,
COC(=O)CSc1nnc2n(-c3ccccc3)c(=O)c3c4c(sc3n12)COC(C(C)C)C4 (stereo not given),,inactive
CCOc1ccccc1N(C)C(=O)Cn1nc(Cc2cccnc2)c2ccccc2c1=O,,inactive
COc1c(C)c2c(c(O)c1CC=C(C)CCC(=O)O)C(=O)OC2,inactive: -8.11%,
Cc1ccccc1NC(=O)c1sc2nc(N3CCOCC3)c3c(c2c1N)CC(C)(C)OC3,inactive: 0.836%,
CCCOc1ccc(C2C(=O)N(C3CCCCCC3)CC(=O)N2CCCOCC)cc1OC (stereo not given),inactive: 3.55%,
CCOc1ccccc1N1CC(c2nc3ccccc3n2CCOc2ccc(C(C)(C)C)cc2)CC1=O (stereo not given),inactive: -7.9%,
CCN(c1cc(C)cc(C)c1)S(=O)(=O)c1nnc(NC(=O)c2cccc(F)c2)s1,inactive: -6.17%,
COc1ccc2c(c1)c1c(c(=O)n(CCc3ccccc3)c(=O)n1Cc1ccc(Cl)cc1)n2C,inactive: 30.6%,
Cc1ccc(NC(=O)/C(C#N)=C\c2ccc(Cl)cc2Cl)cc1C,inactive: 1.57%,
COc1cc(NC(=O)N2CCN(c3cc(-c4noc(C)n4)ccc3C)CC2)cc(OC)c1OC,,inactive
CCN(CC)CCNC(=O)c1cc2c(=O)[nH]c3ccc(C)cc3c2s1,,inactive
Cc1ccc(-c2ccc(CCC(=O)O)n2-c2ccc(C(C)C)cc2)cc1,inactive: 6.58%,
COc1ccccc1CNC(=O)Cn1ncc2c(C)n(Cc3ccccc3Cl)c(C)c2c1=O,,inactive
Nc1c(-c2nc(-c3ccccc3)no2)nnn1CC(=O)Nc1ccccc1,inactive: -2.78%,

Compound,"activity change, negative = inhibition",outcome
CCOc1ccccc1NC(=O)N1CCN(S(=O)(=O)c2ccc3c(ccn3C)c2)CC1,inactive: 8%,
CCN(c1ccc(C)cc1)S(=O)(=O)c1nnc(NC(=O)c2cccs2)s1,,inactive
CC(C)c1ccccc1NC(=O)CSc1nnc(COc2ccccc2Cl)o1,,inactive
CC(C)CN(CCNC(=O)c1cn(C)c2ccc(S(=O)(=O)N3CCCCCC3)cc2c1=O)CC(C)C,,inactive
Cc1cc(C)cc(NC(=O)CSc2nc(=O)[nH]c3c2CCC3)c1,,inactive
COc1cc(NC(=O)Cn2ccn(-c3cc(C)cc(C)c3)c(=O)c2=O)cc(OC)c1,inactive: 10%,
COc1ccc(N2CCN(S(=O)(=O)CCNC(=O)c3cc(=O)c4ccccc4o3)CC2)cc1,inactive: -0.241%,
CN(C)c1oc(-c2ccc(COc3ccccc3)o2)nc1C#N,inactive: -14.3%,
COc1ccc2c(c1)CCc1sc(NC(=O)c3ccc(Br)cc3)nc1-2,inactive: 4.47%,
C[C@@H](c1ncncc1F)[C@](O)(Cn1cncn1)c1ccc(F)cc1F,inactive: 2.59%,
CCc1ccc(NC(=O)CC2C(=O)N(c3ccc(C)cc3)C(=O)N2C2CCCC2)cc1 (stereo not given),,inactive
CC(C)(C)c1ccc(Oc2nc3ccccn3c(=O)c2/C=C(\C#N)c2nc3ccccc3s2)cc1,inactive: 13.1%,
CS(=O)(=O)c1cccc(-c2nnc(NC(=O)c3ccc4c(c3)OCCO4)o2)c1,,inactive
Cc1ccc(NC(=O)C(Cc2ccccc2)NS(=O)(=O)c2ccc3c(c2)CCC(=O)N3)cc1 (stereo not given),,inactive
Cc1ccc(NC(=O)C(=O)NCC(c2ccc3c(c2)OCO3)N2CCN(C)CC2)c(C)c1 (stereo not given),inactive: -13.3%,
Cc1cc(C)cc(NC(=O)CSc2nc3ncccc3[nH]2)c1,,inactive
CC(=O)Nc1cccc(Nc2nc3ccccc3n3c(C)nnc23)c1,inactive: -7.54%,
CCOC(=O)N1CCC(NC(=O)c2cnn(-c3ccc(C)cc3C)c2C2CCN(C(=O)OC(C)(C)C)CC2)CC1,inactive: -3.77%,
CCOc1ccccc1N(C)C(=O)Cn1nc(Cc2ccncc2)c2ccccc2c1=O,inactive: -24.2%,
CCc1nn(CCCC(=O)NCc2ccc(C)cc2)c(=O)c2cc3occc3n12,,inactive
CC(=O)c1nn(-c2ccc(OC(F)(F)F)cc2)nc1Nc1ccccc1,inactive: -4.2%,
O=C(CN1CCCN(Cc2ccc(F)cc2)S1(=O)=O)Nc1ccc2c(c1)OCCO2,inactive: -2.96%,
CCOC(=O)c1c(NC(=O)CCCOc2ccc(C(C)(C)C)cc2)sc2c1CCCC2,inactive: 1.96%,
COc1ccc(OC)c(NC(=O)c2cnc(N3CCCCC3)c3ccccc23)c1,inactive: -19.2%,

Compound,"activity change, negative = inhibition",outcome
CCCSc1ncc(Cl)c(C(=O)N(Cc2cccc(Cl)c2)C2CCS(=O)(=O)C2)n1 (stereo not given),,inactive
CCOc1ccc(-c2cc(NC(=O)Nc3ccc(Cl)cc3)c(C(=O)OC)s2)cc1,,inactive
COc1ccccc1C(=O)OCc1cc(=O)n2nc(-c3cccs3)sc2n1,,inactive
CCC(=O)N1CCc2cc(S(=O)(=O)NCCC(=O)NCc3ccc(C)cc3)ccc21,inactive: -9.98%,
COC(=O)c1ccc(NS(=O)(=O)c2ccc3[nH]c4c(c3c2)CCCC4)cc1,inactive: 6.14%,
CCOC(=O)C1CCCN(S(=O)(=O)c2cc(Br)cc3c2N(C(C)=O)CC3)C1 (stereo not given),inactive: 1.93%,
Cc1cccc(C(c2sc3nc(-c4ccco4)nn3c2O)N2CCN(c3ccccc3F)CC2)c1 (stereo not given),,inactive
CCCn1c(SCC(O)c2ccccc2)nc2ccccc21 (stereo not given),inactive: -4.76%,
COc1cccc(CNC(=O)CCCn2ncn3c(cc4occc43)c2=O)c1,inactive: -4.83%,
CN[C@@H](C)[C@H]1[C@H](O)C[C@@]2(C)[C@@H]3CC[C@H]4C(C)(C)[C@@H](NC)CC[C@@]45C[C@@]35CC[C@]12C,inactive: -14.6%,
CN(C)c1ccc(-c2nc(-c3cccs3)c(-c3cccs3)[nH]2)cc1,,inactive
O=C(NCCc1ccc(Cl)cc1)c1ccc2c(c1)N(Cc1ccc(F)cc1)C(=O)CS2,inactive: -16.1%,
COc1ccc(-c2cc3c(=O)n(CC(=O)Nc4cc(F)ccc4F)ccn3n2)cc1OC,inactive: -16.3%,
CCc1ccc(NC(=O)[C@H](CSCc2ccccc2)N2Cc3ccccc3C2=O)cc1,,inactive
O=C1COc2ccc(-c3cc(-c4ccccc4)c4c(n3)-c3ccccc3OC4)cc2N1,,inactive
Cc1nn(-c2ccccc2)c2sc(C(=O)Nc3ccc(Br)cc3)cc12,inactive: -3.22%,
CCCCN(Cc1cc2ccccc2[nH]c1=O)C(=O)c1cccc(Cl)c1,inactive: -9.46%,
COc1ccc(NC(=O)CCS(=O)(=O)c2ccc3c(c2)oc(=O)n3C)cc1OC,inactive: -4.15%,
O=C(Oc1ccc(F)cc1)c1nc(SCc2ccc(F)cc2)ncc1Cl,inactive: -12.5%,
Cc1ccc(C(=O)NCC(c2ccco2)S(=O)(=O)c2cccs2)cc1C (stereo not given),inactive: 6.68%,
Cc1ccc(-c2noc(-c3ccccc3NC(=O)C3CC(=O)N(c4ccc(C)cc4)C3)n2)cc1 (stereo not given),inactive: 2.74%,
Oc1c(C(c2ccccc2F)N2CCN(c3ccccc3F)CC2)sc2nc(-c3ccco3)nn12 (stereo not given),inactive: -1.44%,
Cc1ccccc1N1CCN(S(=O)(=O)c2ccccc2)CC1,inactive: 1.27%,
CCOC(=O)CSC1=Nc2ccccc2C2=NC(CCC(=O)NCc3ccc(OC)cc3)C(=O)N12 (stereo not given),inactive: 6.83%,

Compound,"activity change, negative = inhibition",outcome
Cc1cc(OCCn2c(CCNC(=O)C3CCCCC3)nc3ccccc32)ccc1Cl,inactive: -13.7%,
Cc1ccc(-c2nc(SCC(=O)NCC3CCCO3)c3c(=O)n(C)c(=O)n(C)c3n2)cc1 (stereo not given),inactive: 2.79%,
Cc1cc(C)c(NC(=O)CSc2nccn2-c2cccc(Cl)c2)c(C)c1,inactive: -0.374%,
COc1ccc(CNC(=O)CCC2N=C3c4ccccc4N=C(SCc4ccccc4F)N3C2=O)cc1 (stereo not given),inactive: 3.46%,
CCCc1cc(N2CCN(c3cccc(C)c3C)CC2)n2cnnc2n1,inactive: -19.8%,
CN(C)CC[C@H](c1ccc(Cl)cc1)c1ccccn1,inactive: -24.1%,
COc1ccccc1Cn1ccn(Cc2ccc(C)cc2)c(=O)c1=O,inactive: 5.01%,
COc1ccc(C)cc1NS(=O)(=O)c1ccc2c3c(cccc13)C(=O)N2,inactive: -26.2%,
O=C(NC1CCCC1)c1ccc2c(=O)n(Cc3ccccc3)c(SCc3cccc([N+](=O)[O-])c3)nc2c1,inactive: 7.72%,
Cc1ccccc1NC(=O)CSc1nc(-c2ccccc2)cn1-c1ccccc1F,inactive: -27.5%,
COCCNC(=O)CSc1nc2cc3c(cc2c(=O)n1CCCC(=O)NCc1ccc2c(c1)OCO2)OCO3,inactive: 3.73%,
Cc1ccccc1OCc1nc2c3cnn(-c4ccccc4F)c3ncn2n1,inactive: -9.54%,
CCOC(=O)C(Cc1ccccc1)NC(=O)CCc1c(C)nc2nc(C)nn2c1C (stereo not given),inactive: -9.62%,
CN(C)CCCNC(=O)c1ccc(-c2cc(O)c3ncccc3c2)cc1,inactive: 7.13%,
COc1cccc(-n2c(-c3ccccc3F)nc3c(cnn3-c3ccc(C)cc3)c2=O)c1,,inactive
CCOC(=O)Cn1c(=O)cc(C(F)(F)C(F)(F)F)c2c(C)nn(CC)c21,inactive: -6.03%,
Cc1ccc(Cl)cc1N1CCN(C(=O)Cn2c(-c3cccs3)cc3cc(F)ccc32)CC1,inactive: 4.59%,
COc1ccc(CNC(=O)CSc2ncc3c(n2)-c2cc(Cl)ccc2N(Cc2ccccc2)S3(=O)=O)cc1,,inactive
CCc1ccc(OCC(=O)Nc2cc(-c3ccc(C)cc3)no2)cc1,inactive: 11.3%,
COc1cccc(NC(=O)CSc2ncc3c(n2)-c2ccc(Cl)cc2N(C)S3(=O)=O)c1,inactive: 6.13%,
CCCNC(=O)c1ccccc1NC(=O)c1nsc2ccccc12,inactive: -3.45%,
CC(C)(C)c1ccc(C(=O)NC2(C(F)(F)F)NC(=O)N(CCc3ccccc3)C2=O)cc1 (stereo not given),,inactive
Cc1ccc(OCC(=O)Nc2ccc3nc(SCC(=O)Nc4ccc(C)cc4C)sc3c2)cc1,inactive: -8.71%,
